Experimental data taken from PubChem BioAssay AID651568 (National Center for Advancing Translational Sciences (NCATS), 2012).
Screen size: about 1,200 compounds; about 55 (5%) were called active. Inconclusive means that the source gave no clear call. Such entries were picked first, then a sample of the others. The call rests on the fitted dose curve; in most records, active means well fitted inhibition curve with a large enough effect; inconclusive means small, poorly fitted or top-dose-only effect; inactive means no such curve, though single readings can be large or run the other way. Potencies of inconclusive entries are left out as doubtful fits.
Potency means the concentration at half of the fitted maximal effect; tags describe the fitted curve by direction and shape.

Experiment: qHTS Assay to Find Inhibitors of Chronic Active B-Cell Receptor Signaling: Hit Validation in Renilla Reporter Assay; further: nearly all actives have a fitted effect of over 70% in size
Details: TMD8 IkB-Renilla luciferase reporter, NF-kB signaling; series mostly up to 57.5 µM
Method in brief: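 Orthogonal secondary test of primary-screen hits in ABC-DLBCL cells carrying constitutively expressed IkB-Photinus and Renilla luciferase reporters, read by Dual-Glo luminescence; luciferases differ from the primary assay's click beetle enzymes, to exclude assay-specific artifacts.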
With `CC(=O)c1cc(C#N)c(SCCC(C)C)nc1C` the Potency was “inactive”. For `O=C(/C=C/c1cccc(Cl)c1)c1nc2ccccc2[nH]1`, the Potency was inconclusive [inhibitor, single point]. With `COc1cc(C#Cc2ccc3cc(CCCO)oc(=O)c3c2)cc(OC)c1` the Potency was inconclusive [inhibitor, single point]. For `COc1ccc(/C=N/NC(=O)c2[nH]nc3c2CCc2ccccc2-3)cc1OC`, the Potency was inconclusive [inhibitor, partial curve]. For `N#CC1=C(S)N(c2ccc(F)cc2)C(c2ccco2)NC1=O` (stereo not drawn), the Potency was inconclusive [inhibitor, single point]. In the case of `Cc1ccc(N2C(=O)c3cccc4c(N)ccc(c34)C2=O)c2cccnc12`, the Potency is reported as “inactive”. With `CCOc1cc(/C=C(/C#N)C(=O)Nc2ccc(O)cc2)cc(Br)c1O` the Potency was inconclusive [inhibitor, single point]. For `CC[C@]12c3[nH]c4cc(CCC(=O)N(C)C)ccc4c3CCN1C(=O)[C@@H](CC(=O)NC/C=C(\C)CCC=C(C)C)C[C@@H]2C(=O)N1CCN(C(=O)c2ccco2)CC1`, the Potency was inconclusive [inhibitor, single point]. For `COc1cccc(CSc2nc3ccccc3cc2C=O)c1`, the Potency was inconclusive [inhibitor, single point]. In the case of `NC(=S)N/N=C/c1ncc(C(F)(F)F)cc1Cl`, the Potency is reported as inconclusive [inhibitor, partial curve]. With `COc1ccccc1NC(=O)COc1ccc(-c2nn(C)c(=O)c3ccccc23)cc1` the Potency was “inactive”. In the case of `Cc1ccc(-n2cc(CNCCc3ncc(C)[nH]3)c(-c3ccc(F)cc3)n2)cc1`, the Potency is reported as inconclusive [inhibitor, single point]. In the case of `O=C(Cc1ccc(-c2ccccc2)cc1)NCc1ccccc1`, the Potency is reported as “inactive”. For `COc1cccc(/C=N/Nc2nc(Nc3ccccc3)nc(-n3nc(C)cc3C)n2)c1O`, the Potency was “inactive”. In the case of `COc1ccc(C)cc1NC(=O)CNC(c1ccccc1)c1ccc(C)cc1` (stereo not drawn), the Potency is reported as “inactive”. For `O=C(NN=C1CCCC1)c1[nH]c2ccc(Cl)cc2c1-c1ccccc1`, the Potency was inconclusive [inhibitor, single point]. In the case of `ClC(Cl)(Cl)c1nc2ccccc2n2nncc12`, the Potency is reported as inconclusive [inhibitor, single point]. In the case of `CCOC(=O)N1CCC(NC(=O)c2ccc3c(c2)N=C(C)c2c(C)ccc(C)c2S3)CC1`, the Potency is reported as inconclusive [inhibitor, single point]. For `COc1ccc(Nc2cc3n(c(=O)n2)CCc2cc(OC)c(OC)cc2-3)c(C)c1`, the Potency was “inactive”. In the case of `O=C(Nc1nc2ccc(F)cc2s1)c1ccccn1`, the Potency is reported as inconclusive [inhibitor, partial curve]. With `Cc1ccc(COC(=O)c2cc([N+](=O)[O-])ccc2N2CCOCC2)cc1` the Potency was “inactive”. In the case of `O=C(/C=C/c1cccs1)c1cc(Br)ccc1OC(=O)N1CCOCC1`, the Potency is reported as active: 26.9 µM. For `CN(C)c1nc(=NCc2ccco2)ss1`, the Potency was active: 16.9 µM. In the case of `Cc1ccc(Nc2nc(-c3c(C)nc4ccccn34)cs2)cc1`, the Potency is reported as inconclusive [inhibitor, partial curve]. In the case of `CCc1ccc(CCC(=O)Nc2ncc(Cc3ccccc3Cl)s2)o1`, the Potency is reported as “inactive”. With `COc1cccc(Nc2sc(C(=O)c3ccc(Cl)cc3)c(N)c2C(=O)NCc2ccc(C)cc2)c1` the Potency was inconclusive [inhibitor, single point]. For `Cc1ccc(CSc2nc3ccccc3cc2C=O)cc1`, the Potency was inconclusive [inhibitor, single point]. In the case of `COc1cccc(C(=O)Nc2ccc3c(cc2=O)[C@@H](NC(C)=O)CCc2cc(OC)c(OC)c(OC)c2-3)c1`, the Potency is reported as inconclusive [inhibitor, partial curve]. In the case of `O=C(Oc1c(CN2CCOCC2)cc(Cl)c2cccnc12)c1ccccc1F`, the Potency is reported as inconclusive [inhibitor, partial curve]. For `O=C(CCl)Nc1cccc(S(=O)(=O)NC2=NCCC2)c1`, the Potency was inconclusive [inhibitor, single point]. With `COc1cc2cnc(-c3ccccc3)cc2cc1OC` the Potency was inconclusive [inhibitor, single point]. For `C=CCC(CC(O)COCCC)C(=O)NNC(=S)Nc1ccccc1` (stereo not drawn), the Potency was inconclusive [inhibitor, single point]. In the case of `CC[C@@H]1Cc2cc(O)ccc2C2=C1c1ccc(O)cc1C[C@H]2CC`, the Potency is reported as inconclusive [inhibitor, single point]. For `O=C(/C=C\c1ccco1)Nc1cc([N+](=O)[O-])ccc1F`, the Potency was “inactive”. In the case of `COc1ccc([C@H]2CC(=O)C=C(c3ccc(OC)cc3OC)C2)cc1`, the Potency is reported as “inactive”. In the case of `CCOc1nc(OCC)nc(N2CCC(C)CC2)n1`, the Potency is reported as “inactive”. For `COc1ccc(-c2c(C)c3ccc(O)cc3oc2=O)cc1OC`, the Potency was “inactive”. For `CCC(C)n1c(NC(=O)c2ccccc2)c(C#N)c2nc3ccccc3nc21` (stereo not drawn), the Potency was inconclusive [inhibitor, partial curve]. With `COc1ccc(Nc2nc(-c3c(C)nc4ncccn34)cs2)cc1` the Potency was inconclusive [inhibitor, partial curve]. For `Cc1ccccc1NCC(=O)c1ccc(Br)cc1`, the Potency was inconclusive [inhibitor, single point]. In the case of `COc1cc(C(=O)N2CCN(c3cc(Cl)ccc3Cl)CC2)cc(OC)c1OC`, the Potency is reported as inconclusive [inhibitor, single point]. For `CN(/N=C/c1cc(Br)cc(Br)c1O)c1cccc(C(F)(F)F)n1`, the Potency was inconclusive [inhibitor, single point]. With `COc1cc(OC)c2c(-c3cccc(-c4cccc(N)c4)c3)cc(=O)oc2c1` the Potency was inconclusive [inhibitor, single point]. For `COc1ccc(-c2sc3cc(OC)c(OC)cc3c2C#CC(C)(C)O)cc1`, the Potency was “inactive”. In the case of `O=C(CSc1nc2ccccc2c(=O)n1-c1ccccc1F)NC1CC1`, the Potency is reported as “inactive”. For `N=C1SCC(=O)N1c1ncc(Cc2cccc(Cl)c2)s1`, the Potency was active: 3.01 µM. With `C/C(=N\NC(=O)c1ccc(F)cc1)c1ccccn1` the Potency was “inactive”. In the case of `CCN(CC)c1ccc(-c2nn3c(-c4ccccc4OC)nnc3s2)cc1`, the Potency is reported as inconclusive [inhibitor, single point]. With `CCCCOc1ccc(Br)cc1/C(C)=N/NC1=NCCN1` the Potency was inconclusive [inhibitor, single point]. In the case of `CCn1c2ccccc2c2cc(Nc3cc(C)nc4ncnn34)ccc21`, the Potency is reported as inconclusive [inhibitor, single point]. For `Cc1cccc(C)c1-n1c(C)cc(/C=N/NC(N)=S)c1C`, the Potency was inconclusive [inhibitor, partial curve]. With `Cc1ccc(/C=N/NC(=O)COc2ccccc2-c2ccccc2)cc1` the Potency was inconclusive [inhibitor, partial curve, poor fit]. In the case of `Cc1cc(SCC#N)n2nc(C)c(-c3ccccc3)c2n1`, the Potency is reported as inconclusive [inhibitor, partial curve, poor fit]. With `O=C(Oc1c(Cl)cc(Cl)c2cccnc12)c1cccs1` the Potency was active: 23.9 µM. In the case of `Cc1cccc(OCCN2C(=O)C(=O)c3cc(C)ccc32)c1`, the Potency is reported as inconclusive [inhibitor, partial curve, poor fit]. In the case of `CCOc1ccc(C(=O)NC(=S)Nc2cccc(S(=O)(=O)NC3=NCCC3)c2)cc1`, the Potency is reported as inconclusive [inhibitor, single point]. In the case of `COc1ccccc1CNS(=O)(=O)c1ccc(-c2cc(C)no2)cc1`, the Potency is reported as “inactive”. In the case of `Cc1onc(-c2ccccc2)c1-c1nc2cc(Cl)ccc2c(=O)o1`, the Potency is reported as inconclusive [inhibitor, partial curve]. For `O=S1(=O)N=C(Nc2nc3c(s2)CCCC3)c2ccccc21`, the Potency was inconclusive [inhibitor, single point]. For `CCOc1ccc2nc(NC(=O)c3ccccn3)sc2c1`, the Potency was inconclusive [inhibitor, partial curve]. In the case of `CCOc1ccc2nc(NC(=O)c3ccc(OC)c(S(=O)(=O)N4CCOCC4)c3)sc2c1`, the Potency is reported as inconclusive [inhibitor, single point]. For `CC(=O)Nc1nc2ccc(-c3nc4ccccc4o3)cc2s1`, the Potency was “inactive”. In the case of `COc1cc(-c2noc(C)c2C#Cc2ccc(N)cc2)cc(OC)c1OC`, the Potency is reported as inconclusive [inhibitor, partial curve]. In the case of `O=C1N/C(=C/c2ccc(N3CCOCC3)o2)C(=O)N1c1cccc(Cl)c1`, the Potency is reported as inconclusive [inhibitor, single point]. In the case of `Cc1ccc(Nc2nc(-c3c(C)nc4ncccn34)cs2)cc1`, the Potency is reported as inconclusive [inhibitor, single point]. With `COc1ccc(OC)c(/C=C/c2ccc3cccc(O)c3n2)c1` the Potency was inconclusive [inhibitor, partial curve]. In the case of `O=C(/C=C/c1ccc(-c2ccccc2[N+](=O)[O-])o1)c1ccccc1`, the Potency is reported as inconclusive [inhibitor, single point]. In the case of `O=[N+]([O-])c1cc(Cl)c(O)c2ncccc12`, the Potency is reported as inconclusive [inhibitor, partial curve]. In the case of `N#CC1=C2SCC(O)(c3ccccc3)N2C(=O)CC1c1cccs1` (stereo not drawn), the Potency is reported as inconclusive [inhibitor, single point]. For `O=S(=O)(Nc1cccc2cccnc12)c1ccccc1`, the Potency was inconclusive [inhibitor, full curve]. For `CC(C)N1C(=O)/C(=C/c2nc3ccccc3c(=O)n2-c2ccccc2)c2ccccc21`, the Potency was active: 13.5 µM. For `COc1ccc(/C=N/NC(=O)c2cc3c(OC)ccc(OC)c3[nH]2)cc1O`, the Potency was inconclusive [inhibitor, single point]. In the case of `COC(=O)[C@@H]1[C@@H](C#N)C2(c3ccccc3-c3ccccc32)N(c2ccc(Cl)cc2)N1C#N`, the Potency is reported as active: 4.78 µM.
